From PMC4336329 (PLoS ONE, 2015)
Among all 310,000 compounds or so, about 14,000 (4.5%) showed an effect of 50% or more. Effects have a minus sign here. The list shows a part of the results.

These compounds were tested against human ether-à-go-go-related gene (hERG) potassium channel (human, UniProt Q12809) (assay: primary screen, population patch clamp on CHO cells stably expressing hERG).
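Further: peak tail current of the secondary pulse compared with the same well before compound.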

Sequence of human ether-à-go-go-related gene (hERG) potassium channel (Q12809 whole entry, looked up): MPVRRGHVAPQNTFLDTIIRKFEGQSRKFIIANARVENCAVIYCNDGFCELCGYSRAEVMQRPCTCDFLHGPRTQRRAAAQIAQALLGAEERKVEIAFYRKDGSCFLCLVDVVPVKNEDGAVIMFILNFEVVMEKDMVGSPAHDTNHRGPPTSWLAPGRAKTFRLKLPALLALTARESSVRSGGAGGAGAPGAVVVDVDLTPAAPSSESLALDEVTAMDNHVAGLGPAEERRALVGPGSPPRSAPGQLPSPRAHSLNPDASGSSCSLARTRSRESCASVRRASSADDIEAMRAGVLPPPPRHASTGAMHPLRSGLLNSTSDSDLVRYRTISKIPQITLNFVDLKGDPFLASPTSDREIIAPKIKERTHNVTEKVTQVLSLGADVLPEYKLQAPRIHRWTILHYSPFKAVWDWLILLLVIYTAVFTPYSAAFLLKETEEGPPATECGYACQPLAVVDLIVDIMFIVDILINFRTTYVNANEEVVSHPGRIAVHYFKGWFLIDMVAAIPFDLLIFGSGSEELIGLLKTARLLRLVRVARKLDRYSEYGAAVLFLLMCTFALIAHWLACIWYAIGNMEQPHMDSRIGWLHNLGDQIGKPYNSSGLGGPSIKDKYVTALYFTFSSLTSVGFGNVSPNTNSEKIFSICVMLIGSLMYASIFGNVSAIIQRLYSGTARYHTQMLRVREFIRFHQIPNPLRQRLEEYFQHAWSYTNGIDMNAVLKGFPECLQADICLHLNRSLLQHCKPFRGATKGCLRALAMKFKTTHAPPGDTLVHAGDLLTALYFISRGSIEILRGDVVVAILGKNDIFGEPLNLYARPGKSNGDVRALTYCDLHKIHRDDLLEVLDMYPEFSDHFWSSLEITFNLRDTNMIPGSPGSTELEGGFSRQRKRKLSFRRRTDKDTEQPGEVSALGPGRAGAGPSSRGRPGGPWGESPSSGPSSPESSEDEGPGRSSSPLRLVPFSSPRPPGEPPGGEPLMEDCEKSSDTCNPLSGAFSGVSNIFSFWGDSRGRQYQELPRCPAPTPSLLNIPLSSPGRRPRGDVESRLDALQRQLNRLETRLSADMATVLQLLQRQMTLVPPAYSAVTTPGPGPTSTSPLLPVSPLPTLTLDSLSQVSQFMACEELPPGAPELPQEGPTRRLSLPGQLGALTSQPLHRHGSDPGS

Row | SMILES | hERG current change (%, negative = inhibition) at 10uM
1 | COCc1[nH]nc2c1C(c1ccc(OC)c(OC)c1)C(C#N)=C(N)O2 (stereo not drawn) | 12.2%
2 | COc1ccc(Br)cc1CN(C)CC(=O)NCCc1ccccc1.O=C(O)C(=O)O | -14.7%
3 | NC(=O)CC1(CC(=O)O)CCCCC1 | 10.1%
4 | COc1ccc(C(=O)/C=C2\NCC3c4ccccc4CCN3C2=O)cc1 (stereo not drawn) | -18.7%
5 | CCN(CC)CCN(C(=O)c1ccc2ccccc2c1)c1nc2ccc(OC)cc2s1.Cl | -30%
6 | COCCn1c(SCC(=O)c2c(-c3ccccc3)n(C)c3ccccc23)nnc1-c1ccncc1 | -22.4%
7 | CC(C)COC(=O)N1CCCC1C(=O)O (stereo not drawn) | -1.68%
8 | O=C(CN1CCOCC1)NN=C(c1ccccc1)c1ccccc1 | 20.8%
9 | N#Cc1ncccc1CCc1cccc(Cl)c1 | -11.1%
10 | Clc1ccccc1NC1=NCCCS1 | 11.7%
11 | COc1ccc(CCNC(=O)Cc2ccc(C)cc2)cc1OC | 16.4%
12 | Cc1ccc(C)n1C1CCS(=O)(=O)C1 (stereo not drawn) | 10.2%
13 | Cc1cccc(C)c1NC(=O)C(=O)NCCc1c[nH]c2ccccc12 | 11.1%
14 | Cc1cc2nc3c(nc2cc1C)C(O)=C3O | 15%
15 | CCS(=O)(=O)CCSc1nc2ccccc2s1 | -1.98%
16 | Cc1cc(C)n2nc(C(=O)Nc3nnc(C4CC4)s3)nc2n1 | 15.1%
17 | CCOc1cc(CN2CCCCCC2)ccc1OC | -3.28%
18 | Cc1ccc(S(=O)(=O)N(C)c2cc(S(N)(=O)=O)c(C)cc2C)cc1 | -11.6%
19 | O=C(Cc1ccc(F)cc1)N/N=C/c1ccc2c(c1)OCO2 | 20.4%

Row | SMILES | hERG current change (%, negative = inhibition) at 10uM
20 | O=[N+]([O-])c1ccccc1/C=N/N1CCN(c2ccc(Cl)cc2)CC1 | -10.9%
21 | O=C(c1cccc(N2C(=O)c3ccccc3C2=O)c1)N1CCCC(C(F)(F)F)C1 (stereo not drawn) | -53.9%
22 | COc1ccc(-c2nc(-c3cccs3)c(-c3cccs3)[nH]2)cc1O | -7.87%
23 | O=C1CC(N2CCN(c3ccccc3)CC2)C(=O)N1c1cccc(Cl)c1 (stereo not drawn) | 8.61%
24 | COc1ccccc1-c1cc(C(F)(F)F)nc(S(=O)(=O)CCCC(=O)NC(C)C)n1 | 1.53%
25 | CCOCCCNC(=O)C(c1ccccc1)N(Cc1cccs1)C(=O)c1ccccc1O (stereo not drawn) | 14.3%
26 | O=C(Nc1ccc(-c2nc3ccccc3s2)cc1)c1cc(-n2cnnc2)ccc1Cl | -0.0347%
27 | O=C(COc1ccccc1F)Nc1cc(S(=O)(=O)Nc2cccc(Cl)c2)ccc1O | 21.7%
28 | COc1cc(CCC(=O)OCC(=O)Nc2ccc(C)cc2Cl)cc(OC)c1OC | 11.8%
29 | O=C(CN(c1ccc(Cl)c(C(F)(F)F)c1)S(=O)(=O)c1ccccc1)N/N=C/c1cccc2c1OCCO2 | 24.1%
30 | COc1cc(C(=O)Nc2ccc(C)cc2)c2ccccc2n1 | 12.8%
31 | CN1C(=O)CC(c2ccco2)Sc2ccccc21 (stereo not drawn) | -17.1%
32 | COc1ccc(NC(=O)C2CCN(S(=O)(=O)c3cn(C)nc3C)CC2)cc1 | -3.97%
33 | COc1ccc(-c2nc3c(-c4ccc(Cl)cc4)cnn3cc2C)cc1F | 26.8%
34 | CSc1ccc(C(=O)C2CCCN(S(=O)(=O)c3c(C)noc3C)C2)cc1 (stereo not drawn) | 16.6%
35 | Cc1cc(C)c2[nH]c(=O)c(CN(Cc3ccco3)C(=S)NCC3CCCO3)cc2c1 (stereo not drawn) | 1.6%
36 | O=C(COC(=O)COc1ccc2ccccc2c1)Nc1cc(C(F)(F)F)ccc1N1CCOCC1 | 7.69%
37 | O=C(NCc1ccc2c(c1)OCO2)NC12CC3CC(CC(C3)C1)C2 | 14.8%
38 | COc1ccc(C(=O)COC(=O)c2cc(S(=O)(=O)NCc3ccccc3)ccc2O)cc1 | 2.47%

Row | SMILES | hERG current change (%, negative = inhibition) at 10uM
39 | COCCOC(=O)C1=C(C)NC(=O)NC1c1c(Cl)nc2ccccn2c1=O (stereo not drawn) | 2.73%
40 | CC(C)(C)NS(=O)(=O)c1ccc(NC(=S)NC(=O)C2CC2)cc1 | 15.6%
41 | Nc1ccc(C2(c3ccc(N)cc3)OC(=O)c3ccccc32)cc1 | -6.43%
42 | O=C(NC1CCCC1)C(c1ccc(F)cc1)N(C(=O)c1csnn1)C1CC1 (stereo not drawn) | -8.2%
43 | O=C1NCCN/C1=C\C(=O)c1cccc(Br)c1 | -11.9%
44 | COc1ccccc1NC(=S)NNC(=O)c1nn(C)c(C)c1Cl | 7.8%
45 | Cc1cc(C[n+]2ncsc2N)c2ncccc2c1.[Br-] | -33.8%
46 | CCN(CC(=O)Nc1c(F)cccc1F)C(=O)CCCc1c[nH]c2ccccc12 | 9.04%
47 | O=C(COC(=O)[C@H](Cc1ccccc1)NC(=O)c1cccs1)NC1CCCCC1 | -13.1%
48 | CCOC(=O)c1ccc(NC(=O)[C@@H](NC(N)=O)C(C)C)cc1 | -2.24%
49 | CC(C)(C)c1ccc(-c2nnc(NC(=O)c3ccccc3)s2)cc1 | -13.6%
50 | O=C(CCCSc1nnnn1-c1cccc2ccccc12)c1ccc(F)cc1 | -7.29%
51 | NS(=O)(=O)c1ccc(CNS(=O)(=O)Cc2ccc(Cl)cc2)cc1 | 8.77%
52 | O=[N+]([O-])c1ccc(N2CCNCC2)cc1Sc1ccccn1 | 30.3%
53 | COc1ccc2c(c1)N(C(=O)CSc1n[nH]c(C)n1)C(C)(C)C=C2C | -9.81%
54 | O=C(CN1CCN(c2cccc(Cl)c2)CC1)Nc1ccc(S(=O)(=O)N2CCOCC2)cc1 | 6.01%
55 | CCOc1ccc(NC(=S)NC2CC3CCC(C2)N3Cc2ccco2)cc1 (stereo not drawn) | -25.6%
56 | Cn1nc(C(C)(C)C)cc1C(=O)NN1CCOCC1 | 18%
57 | CCSc1nnc(NC(=O)NC(C)(C(F)(F)F)C(F)(F)F)s1 | 4.5%
